Test results published in PubChem BioAssay AID1030 (National Center for Advancing Translational Sciences (NCATS), 2008).
Among all 220,000 compounds or so, about 16,000 (7.3%) were called active. Inconclusive results, whose numbers are uncertain, are shown with a selection of clear calls. The call rests on the fitted dose curve; in most records, active means well fitted inhibition curve with a large enough effect (not every such curve was filed as active); inconclusive means small, poorly fitted or top-dose-only effect, or another doubt; inactive means no such curve, though single readings can be large or run the other way. Potencies beside an inconclusive call are fits to weak or partial responses and may not hold up.

The compounds below were run against Aldehyde dehydrogenase 1A1 (Homo sapiens) (UniProt P00352) (assay: qHTS Assay for Inhibitors of Aldehyde Dehydrogenase 1 (ALDH1A1)). Details: Purified ALDH1A1, NADH fluorescence, propionaldehyde substrate; series mostly up to 75.3 µM.
UniProt P00352, sequence (P00352 whole entry, looked up): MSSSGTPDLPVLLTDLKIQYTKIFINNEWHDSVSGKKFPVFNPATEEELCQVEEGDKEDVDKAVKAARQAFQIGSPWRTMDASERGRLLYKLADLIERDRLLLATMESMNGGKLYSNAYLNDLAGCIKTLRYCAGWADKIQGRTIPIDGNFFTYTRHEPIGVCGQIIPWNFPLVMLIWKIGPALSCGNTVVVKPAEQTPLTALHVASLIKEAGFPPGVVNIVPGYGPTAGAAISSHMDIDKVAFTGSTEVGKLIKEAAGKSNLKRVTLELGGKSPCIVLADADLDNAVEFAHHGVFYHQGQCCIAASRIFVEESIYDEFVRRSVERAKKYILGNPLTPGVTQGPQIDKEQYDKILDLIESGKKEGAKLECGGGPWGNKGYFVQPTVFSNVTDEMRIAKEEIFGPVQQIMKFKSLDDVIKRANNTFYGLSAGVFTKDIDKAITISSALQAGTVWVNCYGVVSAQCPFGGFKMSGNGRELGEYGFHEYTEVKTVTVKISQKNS
Potency means the concentration at half of the fitted maximal effect; tags describe the fitted curve by direction and shape.
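Wherever activity, negative = inhibition is given: plate controls were no enzyme wells and a reference inhibitor.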

Potency, inconclusive:
CCN(CC)c1ccc(O)c(C=Nc2ccc(C)c(C)c2)c1 37.7 µM [inhibitor, single point]
COc1ccc2c(c1)/C(=N/N1C(=O)c3ccccc3C1=O)C(=O)N2 7.08 µM [inhibitor, partial curve]
CCNc1ncc2nc(-c3cn(C)c4ccccc34)c(=O)n(C)c2n1 28.2 µM [inhibitor, partial curve]
O=C(CNCc1ccccc1)Nc1ccc(F)cc1 44.7 µM [inhibitor, single point]
CC(=O)c1ccc2noc(-c3ccc(C)cc3)c2c1 22.4 µM [inhibitor, partial curve]
CCCOc1ccc(-c2cc(C(F)(F)F)c(C#N)c(SCC(=O)O)n2)cc1 35.5 µM [inhibitor, single point]
Cc1nc(N2CCC(C)CC2)c2c(C)c(C(=O)Nc3ccccc3C(F)(F)F)sc2n1 35.5 µM [inhibitor, single point]
Nc1c(N)c2ccccc2oc1=O 39.8 µM [inhibitor, single point]
CCc1ccc(OCC(=O)Nc2ccc(-c3cc4ccccc4oc3=O)c(OC)c2)cc1 28.2 µM [inhibitor, partial curve]
CC1CN(C(=O)/C(C#N)=C2\N=C(NC(=O)c3ccccc3Cl)c3ccccc32)CC(C)O1 (configuration not stated) 20 µM [inhibitor, partial curve]
Nc1nonc1-c1nc2ccccc2n1CC(=O)N/N=C\c1ccc(-c2ccc(Cl)cc2)o1 31.6 µM [inhibitor, single point]
CC(=O)c1ccc(NC(=S)Nc2cccc(Cl)c2C)cc1 39.8 µM [inhibitor, single point]
O=C(O)CCN1C(=O)c2ccc(NC(=O)CSc3ccccc3)cc2C1=O 35.5 µM [inhibitor, single point]
Cc1ccc(-c2ccnc3nc(-n4cccc4)nn23)o1 25.1 µM [inhibitor, partial curve]
CC(C)(C)c1ccc(C(=O)NNC(=O)Cc2ccccc2)cc1 44.7 µM [inhibitor, single point]
Cc1c(OCC(=O)N(C)C)ccc2c3c(c(=O)oc12)CCCCC3 28.2 µM [inhibitor, partial curve]
Cc1ccc(CCNC(=O)C23CN(Cc4ccccc4)CC2C(c2cccc([N+](=O)[O-])c2)=NO3)cc1 (configuration not stated) 20 µM [inhibitor, single point]
CC1=CC2CC1C1C(=O)N(c3ccc(S(=O)(=O)Nc4nc(C)cc(C)n4)cc3)C(=O)C21 (configuration not stated) 39.8 µM [inhibitor, single point]
CC(=O)c1cccc(Nc2nc(-c3ccccc3)cs2)c1 44.7 µM [inhibitor, single point]
Cc1ccc(OCCn2c(=O)cnc3ccccc32)cc1 25.1 µM [inhibitor, partial curve]
COc1ccc(OC)c(NC(=S)NCc2ccc(S(N)(=O)=O)cc2)c1 37.7 µM [inhibitor, single point]
C=C(C)Cn1c(CCCNC(=O)CC)nc2ccccc21 39.8 µM [inhibitor, single point]
COc1ccc(CNc2nc(-c3c(C)noc3C)nc3ccccc23)c(OC)c1 39.8 µM [inhibitor, partial curve]
Cc1nc2c(c3c1[nH]c1ccccc13)C(=O)CC(C)(C)C2 14.1 µM [inhibitor, partial curve]
Cc1ccc(-c2cc(C(=O)N3CCCC3)no2)cc1 22.4 µM [inhibitor, single point]
C/C(=N\N=C(/N)SC1CC(=O)N(c2ccc(Cl)cc2)C1=O)c1cccs1 (configuration not stated) 28.2 µM [inhibitor, single point]
Cc1ccccc1OCCCC(=O)Nc1ccc(N2CCOCC2)cc1 44.7 µM [inhibitor, single point]
Cc1nc(NCc2ccccc2)c2nc(-c3ccccc3)n(CC(C)(C)CN(C)C)c2n1 31.6 µM [inhibitor, partial curve]
COc1ccc2[nH]c(C(=O)NCCN3CCOCC3)cc2c1 20 µM [inhibitor, partial curve]
Cc1cccn2c(=O)c(C=Nc3ccc(Cl)cc3)c(NCCO)nc12 35.5 µM [inhibitor, single point]
O=C(O)c1ccccc1NCc1ccco1 44.7 µM [inhibitor, single point]
O=[N+]([O-])c1ccc(COc2ccc(Br)cc2CN2CCOCC2)cc1 39.8 µM [inhibitor, single point]
CC(=S)c1c(C)cc2cc(C)ccn12 25.1 µM [inhibitor, single point]
Cc1nc2cc(-c3ccc(Cl)cc3)nn2c(C)c1CCC(=O)NCc1ccco1 31.6 µM [inhibitor, partial curve]
O=C(CN1CCN(C2CCCCC2)CC1)Nc1cccc2ccccc12 25.1 µM [inhibitor, single point]
NC(=O)C1c2ccccc2CSc2ccccc21 (configuration not stated) 39.8 µM [inhibitor, single point]
COc1ccc(C2C3=C(N=C4SCC(=O)N42)c2ccccc2CC3)cc1 (configuration not stated) 39.8 µM [inhibitor, single point]
CC1NC(=O)NC1CCCCCC(=O)NCCc1ccccc1 (configuration not stated) 31.6 µM [inhibitor, single point]
COc1ccccc1-c1nn2c(=O)cc(C)nc2s1 1.12 µM [inhibitor, full curve]
COc1ccccc1N1CCN(C(=O)c2c(C)cc(=O)oc2C)CC1 39.8 µM [inhibitor, single point]
Cc1cc(C)n2cc(CSc3ncn[nH]3)nc2n1 28.2 µM [inhibitor, partial curve]
CCCC1OC23CCCCC2C(C#N)(C(=N)O3)C1(C#N)C#N (configuration not stated) 35.5 µM [inhibitor, partial curve]
CNC(=S)N1CCn2cccc2C1c1ccc(F)cc1 (configuration not stated) 31.6 µM [inhibitor, single point]
CC(=O)N1CCN=C1SCc1ccccc1 35.5 µM [inhibitor, single point]
O=C(Cn1nc(C(=O)O)c2ccccc2c1=O)Nc1ccc2c(c1)C(=O)c1ccccc1C2=O 11.2 µM [inhibitor, partial curve]

Potency, active:
COc1ccc(S(=O)(=O)NCc2cccs2)cc1 10 µM
Cc1cc(C)c(-n2c(C)cc(/C=C3/NC(=O)NC3=O)c2C)c(C)c1 14.1 µM
COc1ccc(C(=O)CN2CCN(S(=O)(=O)c3cccc([N+](=O)[O-])c3)CC2)cc1 10 µM
CC(/C=C/C=C(C)/C=C/C(=O)O)=C\C=C\C=C(C)\C=C\C=C(C)\C=C\C(=O)O 31.6 µM
Cc1cc(Cl)c(S(=O)(=O)N2CCSCC2)cc1OCC(=O)NC1CCCCC1 7.94 µM
COc1ccc(NC(=O)c2[nH]ncc2[N+](=O)[O-])cc1 15 µM
O=C(Nc1ccc2c(c1)OCO2)c1ccccc1SCC(=O)N1CCCC1 1.26 µM
CC(C)N(Cc1nc(-c2ccccc2)no1)C(=O)c1ccc(Br)o1 10 µM
Cc1cccc(-c2noc(-c3ccccc3C(=O)NCC3CCCO3)n2)c1 (configuration not stated) 15.8 µM
O=C1CSc2ccccc2N1Cc1ccccc1F 22.4 µM
Cc1cc(S(=O)(=O)N2CCCOC2CNC(=O)C(=O)NCc2ccco2)ccc1F (configuration not stated) 10 µM
COC(=O)Nc1nn(-c2ccc(OC)cc2)c(=O)c(C#N)c1C 25.1 µM
CCCN1C(=O)C(O)(C2CC(=O)CC(C)(C)O2)c2ccccc21 (configuration not stated) 0.794 µM

Potency, inactive:
Cc1ccc(NC(=O)c2cccc(N3C(=O)CCC3=O)c2)nc1
Cc1ccc(S(=O)(=O)Nc2cc(C(C(=O)OC(C)C)C(=O)C(F)(F)F)c(O)c3ccccc23)c(C)c1 (configuration not stated)
Cn1ccnc1SCC(=O)Nc1cc(S(=O)(=O)N2CCOCC2)ccc1Cl
O=C1NC(N2CCOCC2)=N/C1=C/c1ccc2c(c1)OCO2
CCO[C@@H]1OC(C(=O)N2CCOCC2)=C[C@H](c2coc3ccccc3c2=O)[C@H]1CCCO
Cc1cnc(C)c(N2CCN(Cc3nc(-c4cccc(F)c4F)oc3C)CC2)n1
CCOC(=O)CSc1nc(=O)n2ccc(C)cc2n1
CCCn1c(C)nc2c(NC3CCN(Cc4ccccc4)C3)nc(C)nc21 (configuration not stated)
COc1cc(=O)n2c(n1)SCCC2
COc1ccc(-n2c(=O)c3c4c(sc3n3c(=S)[nH]nc23)CCC4)cc1
O=C(O)/C=C\C(=O)NC1CCCCC1
CC(Sc1cnccn1)C(=O)O (configuration not stated)
COc1ccccc1NC(=O)CSc1ccc2nnc(-c3ccc(C)cc3)n2n1

activity, negative = inhibition, inactive:
C/C(CCN1CCc2nc(-c3ccccc3)c(-c3ccccc3)cc2C1)=N\O[C@@H](C)CN1CCCCc2nc(C)c(C)cc21 -11% [at 13.5 µM]
